Publication PMC7338617 (Redox Biology, 2020)

Key:
Experiment in all cases: FRET or BRET
[1] = molecular target: T1, Rluc-tagged APJ-S345A (UniProt P35414 1-380, S345A)
T1 sequence: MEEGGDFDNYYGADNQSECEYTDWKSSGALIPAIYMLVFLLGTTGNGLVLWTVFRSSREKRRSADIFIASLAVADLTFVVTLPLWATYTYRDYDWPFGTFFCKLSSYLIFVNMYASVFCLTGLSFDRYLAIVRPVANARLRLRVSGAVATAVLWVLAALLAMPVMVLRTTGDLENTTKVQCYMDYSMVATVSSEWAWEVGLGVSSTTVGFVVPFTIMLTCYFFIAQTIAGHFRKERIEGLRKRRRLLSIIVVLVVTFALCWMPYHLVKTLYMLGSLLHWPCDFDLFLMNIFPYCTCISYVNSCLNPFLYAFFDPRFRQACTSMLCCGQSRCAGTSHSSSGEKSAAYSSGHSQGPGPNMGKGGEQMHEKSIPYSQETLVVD

[2] = molecular target: T2, Rluc-tagged APJ-S348A (UniProt P35414 1-380, S348A)
T2 sequence: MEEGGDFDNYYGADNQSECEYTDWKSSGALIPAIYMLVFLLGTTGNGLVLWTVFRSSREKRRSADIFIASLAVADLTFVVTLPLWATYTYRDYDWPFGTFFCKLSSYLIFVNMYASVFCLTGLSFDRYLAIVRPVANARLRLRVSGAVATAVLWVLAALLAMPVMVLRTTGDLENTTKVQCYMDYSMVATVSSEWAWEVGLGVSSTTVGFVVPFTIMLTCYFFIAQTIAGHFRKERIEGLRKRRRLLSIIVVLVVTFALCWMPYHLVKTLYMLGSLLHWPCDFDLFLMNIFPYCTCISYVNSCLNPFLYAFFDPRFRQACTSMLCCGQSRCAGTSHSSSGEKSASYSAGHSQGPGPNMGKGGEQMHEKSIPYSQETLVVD

[3] = molecular target: T3, Rluc-tagged APJ-S335A (UniProt P35414 1-380, S335A)
T3 sequence: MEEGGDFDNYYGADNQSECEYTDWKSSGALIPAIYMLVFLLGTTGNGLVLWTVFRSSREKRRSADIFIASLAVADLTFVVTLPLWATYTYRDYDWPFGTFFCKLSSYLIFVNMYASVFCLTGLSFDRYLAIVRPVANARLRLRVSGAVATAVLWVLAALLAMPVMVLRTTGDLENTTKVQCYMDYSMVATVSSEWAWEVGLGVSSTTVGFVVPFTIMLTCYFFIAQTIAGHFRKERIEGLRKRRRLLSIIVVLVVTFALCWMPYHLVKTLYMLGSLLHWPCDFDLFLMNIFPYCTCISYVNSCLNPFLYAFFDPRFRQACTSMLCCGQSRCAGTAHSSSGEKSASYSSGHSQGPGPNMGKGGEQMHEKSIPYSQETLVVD

[4] = molecular target: T4, Rluc-tagged APJ-S369A (UniProt P35414 1-380, S369A)
T4 sequence: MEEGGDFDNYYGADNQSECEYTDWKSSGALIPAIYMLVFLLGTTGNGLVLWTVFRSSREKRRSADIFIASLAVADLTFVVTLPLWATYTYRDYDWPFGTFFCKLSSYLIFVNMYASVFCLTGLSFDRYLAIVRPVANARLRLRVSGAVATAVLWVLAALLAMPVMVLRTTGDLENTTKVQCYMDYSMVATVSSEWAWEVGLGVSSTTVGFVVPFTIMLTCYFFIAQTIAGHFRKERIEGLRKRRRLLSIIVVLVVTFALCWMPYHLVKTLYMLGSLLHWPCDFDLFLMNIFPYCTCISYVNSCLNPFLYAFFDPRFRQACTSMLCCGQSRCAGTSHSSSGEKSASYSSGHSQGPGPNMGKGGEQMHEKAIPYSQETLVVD

[5] = molecular target: T5, Rluc-tagged WT APJ (apelin receptor) (UniProt P35414 1-380)
T5 sequence: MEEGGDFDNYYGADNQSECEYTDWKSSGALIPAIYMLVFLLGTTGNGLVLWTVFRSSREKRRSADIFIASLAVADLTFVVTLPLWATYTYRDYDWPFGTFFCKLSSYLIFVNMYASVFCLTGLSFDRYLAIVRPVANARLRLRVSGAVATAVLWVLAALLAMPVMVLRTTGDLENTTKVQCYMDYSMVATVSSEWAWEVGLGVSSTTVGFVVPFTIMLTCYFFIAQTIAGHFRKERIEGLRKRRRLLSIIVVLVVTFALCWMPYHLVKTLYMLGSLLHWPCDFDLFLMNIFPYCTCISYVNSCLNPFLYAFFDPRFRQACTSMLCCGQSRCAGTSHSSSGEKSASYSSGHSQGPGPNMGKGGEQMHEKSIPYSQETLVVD

[6] = molecular target: T6, Rluc-tagged APJ-S339A (UniProt P35414 1-380, S339A)
T6 sequence: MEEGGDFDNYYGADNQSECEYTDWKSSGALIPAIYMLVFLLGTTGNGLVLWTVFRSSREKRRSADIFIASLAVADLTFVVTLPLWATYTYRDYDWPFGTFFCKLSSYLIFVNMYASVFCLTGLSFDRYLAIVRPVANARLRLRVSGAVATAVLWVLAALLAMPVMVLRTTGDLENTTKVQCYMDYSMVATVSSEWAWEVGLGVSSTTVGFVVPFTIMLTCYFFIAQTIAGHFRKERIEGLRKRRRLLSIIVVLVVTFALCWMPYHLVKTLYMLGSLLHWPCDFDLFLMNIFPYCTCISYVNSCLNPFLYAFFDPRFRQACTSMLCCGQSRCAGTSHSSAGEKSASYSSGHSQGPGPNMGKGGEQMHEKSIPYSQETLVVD

EC50 of apelin-36 for the BRET between the pair [1]: 5.24 nM
EC50 of apelin-36 for the BRET between the pair [2]: 4.98 nM
EC50 of apelin-36 for the BRET between the pair [3]: 5.01 nM
EC50 of apelin-36 for the BRET between the pair [4]: 4.89 nM
EC50 of apelin-36 for the BRET between the pair [5]: 5.18 nM
EC50 of apelin-36 for the BRET between the pair [6]: 8.74 nM
B1: EGFP-tagged β-arrestin2 (natural protein)
chain: not shown
